In patent US20180015075A1, “METHODS AND COMPOSITIONS FOR TREATMENT OF VENOUS MALFORMATION” (Children's Hospital Medical Center, priority 2016, published 2018):

System: HUVEC (non-transfected)
Assay: cells
Conditions: Homo sapiens, read-out: Average proliferation Inhibition rate (%) HUVEC

Oc1ncc(N(CCCl)CCCl)c(O)n1 [Uracil mustard]
inhibition at 20 µM: 18.8%
